According to PubChem BioAssay (NCI):
Values joined by “and” are separate entries in the source; they are usually repeats but may differ in a detail not shown here. Identical values can stand only once.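 Following 48 hours of exposure in 96-well plates, responses at five concentrations were used to interpolate endpoints linearly. GI50 = concentration required for 50% inhibition of growth. TGI: total growth inhibition.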

Test system: NCI-H322M lung
Assay: NCI-60 cell line screen, 48 h

SMILES | TGI | GI50
Cc1ccc2c(=O)cc(-c3ccc(F)cc3)[nH]c2n1 | > 100 µM | 
COC(=O)[C@H](Cc1c[nH]c2ccccc12)NP(=O)(O)OCC1C=CC(n2cc(C)c(=O)[nH]c2=O)O1 (some centres undefined) | > 100 µM | 
O=C1C2C(C(=O)N1OS(=O)(=O)c1ccccc1)N(Cc1ccccc1)C(=O)N2Cc1ccccc1 (centres undefined) | > 100 µM | 
O=C(Nc1ccc(Cl)c(Cl)c1)Nc1ccc(Cl)c(Cl)c1 | 14.9 µM and 16.6 µM | 2.96 µM and 3.46 µM
O=C(O)CSc1ccc([N+](=O)[O-])cc1[N+](=O)[O-] | > 100 µM | 
CN(C)C(=N)c1ccccc1 | > 100 µM | 
CO[C@H](C(=O)[C@@H](O)[C@@H](C)O)[C@@H]1Cc2cc3cc(O[C@H]4C[C@@H](O[C@H]5C[C@@H](O)[C@H](O)C(C)O5)[C@H](O)C(C)O4)c(C)c(O)c3c(O)c2C(=O)[C@H]1O[C@H]1C[C@@H](O[C@H]2C[C@@H](O[C@H]3C[C@](C)(O)C(=O)C(C)O3)[C@@H](O)C(C)O2)[C@H](O)C(C)O1 (some centres undefined) | > 15.2 µM | 0.0919 µM
Cc1cc(N(CCC#N)CCC#N)ccc1/C(N=Nc1ccc(Cl)cc1)=N\NC(=O)c1ccccc1 | > 100 µM | 
Cc1nc(C(N)=S)sc1/C(CC(=O)C(=O)Nc1cccc2ccc(O)cc12)=N\NC(=O)c1ccncc1 | > 100 µM | 
O=C1/C(=C/c2ccccc2)CN(C(=O)C(Cl)(Cl)Cl)C/C1=C\c1ccccc1 | 18.5 µM | 
COc1ccccc1C12OC(=O)C1(C)Oc1ccccc1C2=O (centres undefined) | > 100 µM | 
CCCCCN(CCCCC)CC(O)c1cc(C)c2ccc3cc(C(C)C)ccc3c2c1 (centres undefined) | 3.23 µM | 1.76 µM
CC(=O)NC1=C(NCCC(C)C)C(=O)c2ccccc2C1=O | > 50 µM | 
NC(Cc1c[nH]c2c(O)cccc12)C(=O)O (centres undefined) | > 100 µM | > 100 µM
Cc1c2cnccc2c(C)c2c1c1ccccc1n2CCCN | 0.88 µM and 0.47 µM | 0.0608 µM
COc1ccc2c(c1)/C(=C/c1c(C)nc3sc(C)nn13)C(=O)N2 | > 100 µM | > 24.9 µM
Cn1cc(C2=C(c3cn(C)c4ncccc34)C(=O)NC2=O)c2ccccc21 | > 25 µM | 12.5 µM

SMILES | TGI | GI50
CC1C=C(CCCCCCCCCCCC[C@@H](O)[C@@H]2CC[C@@H]([C@@H]3CC[C@@H](C(O)CCCCCCCCCCCCC4=C[C@H](C)OC4=O)O3)O2)C(=O)O1 (some centres undefined) | > 100 µM | 
COc1cc(/C=N/NC(=O)c2ccc(C(F)(F)F)nc2Nc2ccc(Cl)cc2C)ccc1O | 13.7 µM | 1.49 µM
CCN(CC)CCC(=O)Nc1ccc2c(c1)C(=O)c1ccc(NC(=O)CCN(CC)CC)cc1C2=O | 14.8 µM | 
COC1CCC2C(NS(=O)(=O)c3ccc(C)cc3)CCCC2O1 (centres undefined) (tested in a mixture with another compound) | > 34.5 µM | 
N=c1n(C(=O)N2CCCC2)c2cc(Cl)ccc2n1C1=NCCN1 | > 100 µM | 
O=C1OCC(O)=C1C(c1ccc(Cl)cc1)c1cc2c(cc1O)OCO2 (centres undefined) | > 100 µM | 
Cc1cc(C)nc(NS(=O)(=O)c2ccc(NC(=O)c3ccc(Cl)c4c(Nc5ccc(S(=O)(=O)Nc6nc(C)cc(C)n6)cc5)c5ccccc5nc34)cc2)n1 | 10.8 µM | 
CN1C(=O)C(C)(C)C2(SC(C)(C)C2(C)C)N(C)C1=S (centres undefined) | > 100 µM | 
CCCCOC(=O)C1OC(O[C@H]2CCC3(C)C(CCC4(C)C3CC=C3C5CC(C)(C)CCC5(C(=O)O)CC[C@]34C)C2(C)C)C(OC2OC(CO)C(O)C(O)C2O)C(OC2OC(CO)C(O)C(O)C2O)C1O (some centres undefined) | 49.2 µM | 19 µM
O=S(=O)(NC1=NCCN1C(=S)SN1CCn2c1nsc2=S)c1ccc(OC(F)(F)F)cc1 | 43.4 µM | 18.8 µM
CCCCCCCCCCCCCCCCCC(CCCCCCCCCCCCCCCCC)OP(=O)(O)O | > 100 µM | 
O=C(NNC(=O)c1ccccc1SSc1ccccc1C(=O)NNC(=O)c1ccccc1S)c1ccccc1S | > 100 µM | 
CN(C)CC[N+]1=Nc2cccc3cccc(c23)N1 | > 100 µM | 
CN/N=C(/Cc1occc(=O)c1O)C(=O)Nc1ccccc1C | > 100 µM | 
N#CC1=C(N)N(c2ccccc2)C(c2ccco2)C1(C#N)C#N (centres undefined) | 41.8 µM | 
C=C1C(=O)C23CC1CCC2C12CO[C@@H]4OCC(C)(CC[C@@H]1OC3=O)C42 (some centres undefined) | 29.1 µM | 
O=C1CCC(=O)N1n1c(Cc2ccccc2)n[nH]c1=O | > 100 µM | 
